Over roughly 18,000 sequences, “TetR repression strength (sort-seq, GFP reporter)” has its median near 0.23; the highest 2% begin near 0.68. The list shows a part of the results.

Here are results for 130 sequences from a collection of fitness landscapes (doi:10.1038/s41467-024-54723-y).

The target of this experiment is TetR (class B, Tn10) (UniProt P04483). The experiment can be described thus: TetR repression strength (sort-seq, GFP reporter) (relative to tetO2 = 1); higher = stronger repression. The following applies: E. coli. The procedure, abridged: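 E. coli SIG10-MAX carried a low-copy plasmid library with eight randomized operator positions between a constitutive promoter and sfGFP, with TetR constitutively expressed. Cells grew 5 h at 37 °C in LB with 50 µg/mL chloramphenicol, then 10^6 cells were FACS-sorted into 13 fluorescence bins, each Illumina-sequenced. Repression strength is the top bin index plus one minus the read-weighted mean bin, divided by the wild-type operator value. Three independent transformations; variants with ≥30 reads in all replicates and CV ≤0.5 were averaged.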
Sequence of UniProt P04483 (P04483 whole entry): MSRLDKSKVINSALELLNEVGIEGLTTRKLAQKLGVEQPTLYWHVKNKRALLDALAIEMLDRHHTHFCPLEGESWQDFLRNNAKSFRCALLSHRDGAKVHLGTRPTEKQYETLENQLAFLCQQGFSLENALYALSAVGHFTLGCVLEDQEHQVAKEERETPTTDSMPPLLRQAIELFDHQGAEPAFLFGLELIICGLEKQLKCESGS
For the sequence TCCCAATTAGTAAAGGAGA, the TetR repression strength worked out at 0.467.
Under TCCCTCGGAGTAAATGAGA stands 0.236; under TCCCCATTAGTGGTGGAGA, 0.215.
The value for TCCCGTCTAGTCAGAGAGA was 0.0894.
As to TCCCATACAGTTAATGAGA, the TetR repression strength came to 0.311.
TCCCCATGAGTTGGTGAGA had a TetR repression strength of 0.0296.
TCCCAGGGAGTTGTGGAGA: the TetR repression strength was determined as 0.188.
The value for TCCCGCGAAGTAGTAGAGA was 0.227.
The value for TCCCACCCAGTAGTGGAGA was 0.211; that for TCCCTAGCAGTCTTCGAGA was 0.495; that for TCCCATGGAGTGAGGGAGA was 0.242.
Take TCCCACAGAGTGCGAGAGA: the TetR repression strength came to 0.223.
In turn, TCCCTGCTAGTAAGCGAGA came in with a TetR repression strength of 0.168.
In the case of TCCCTCTCAGTTGTCGAGA, the TetR repression strength turned out to be 0.462.
With TCCCTCTGAGTGGGTGAGA, the TetR repression strength stood at 0.195.
TCCCGGTAAGTTGGTGAGA: the TetR repression strength turned out to be 0.19.
As for TCCCCATGAGTCGCGGAGA, the TetR repression strength is 0.194.
TCCCGCGAAGTGAGCGAGA: the TetR repression strength is 0.248.
Sequence TCCCTAGAAGTTTGAGAGA came in with a TetR repression strength of 0.202.
TCCCTATTAGTTGAAGAGA yielded a TetR repression strength of 0.138.
TCCCGTTCAGTCGGCGAGA had a TetR repression strength of 0.0929.
In turn, TCCCTACAAGTTCGTGAGA displayed a TetR repression strength of 0.272.
TCCCTTGGAGTACACGAGA: the TetR repression strength amounted to 0.237.
As to TCCCTATCAGTGGTTGAGA, the TetR repression strength came to 0.591.
The value for TCCCGCCGAGTGACTGAGA was 0.333; that for TCCCATTCAGTGTATGAGA was 0.207.
Consider TCCCACTCAGTTGTGGAGA, for which the TetR repression strength turned out to be 0.353.
The value for TCCCACAGAGTGTTGGAGA was 0.0429; that for TCCCGGTAAGTAGCTGAGA was 0.208.
TCCCCAATAGTTGGGGAGA displayed a TetR repression strength of 0.143.
On to TCCCGGGCAGTTTGGGAGA, for which the TetR repression strength amounted to 0.326.
Take TCCCTGTGAGTGCGGGAGA: the TetR repression strength was 0.112.
Sequence TCCCTGCGAGTTTACGAGA gave a TetR repression strength of 0.25.
The sequence TCCCGAATAGTCGACGAGA displayed a TetR repression strength of 0.165.
TCCCGGTAAGTGGGGGAGA gave a TetR repression strength of 0.17.
For TCCCGGATAGTTGCTGAGA, the TetR repression strength turned out to be 0.22.
On to TCCCTCGGAGTGTTAGAGA, for which the TetR repression strength came out at 0.589.
For TCCCGCGTAGTAGGAGAGA, the TetR repression strength came to 0.691.
Turning to TCCCGTGGAGTGAACGAGA, the TetR repression strength worked out at 0.133.
TCCCGCTGAGTAGGAGAGA yielded a TetR repression strength of 0.154.
Under TCCCGCTGAGTGGCGGAGA stands 0.195; under TCCCGAGTAGTATTGGAGA, 0.258.
Regarding TCCCATGTAGTATGCGAGA, the TetR repression strength is 0.327.
Regarding TCCCCCCAAGTGTCTGAGA, the TetR repression strength was 0.331.
TCCCATGGAGTGGTCGAGA yielded a TetR repression strength of 0.075.
The value for TCCCGCCGAGTGAGAGAGA was 0.358; that for TCCCGGCTAGTAGAGGAGA was 0.0518; that for TCCCATGGAGTCGGCGAGA was 0.479.
With TCCCTTCCAGTGGACGAGA, the TetR repression strength came to 0.205.
The sequence TCCCGGATAGTCTTCGAGA had a TetR repression strength of 0.0399.
TCCCGCCAAGTTTTTGAGA came in with a TetR repression strength of 0.525.
TCCCAGTAAGTATCGGAGA showed a TetR repression strength of 0.221.
Take TCCCGACGAGTCCATGAGA: the TetR repression strength was determined as 0.476.
TCCCGAGTAGTGTTTGAGA displayed a TetR repression strength of 0.323.
Consider TCCCGTAAAGTTCAAGAGA, for which the TetR repression strength was found to be 0.415.
For TCCCATAGAGTATATGAGA, the TetR repression strength came out at 0.261.
On to TCCCATTTAGTTGTAGAGA, for which the TetR repression strength is 0.151.
For the sequence TCCCGACAAGTTGGGGAGA, the TetR repression strength worked out at 0.109.
With TCCCGTCAAGTGATAGAGA, the TetR repression strength worked out at 0.382.
The value for TCCCGGCAAGTACGGGAGA was 0.207.
Under TCCCATTTAGTGATCGAGA stands 0.
The value for TCCCTGAGAGTCAAAGAGA was 0.183; that for TCCCGACGAGTACATGAGA was 0.629; that for TCCCTTTGAGTGTCCGAGA was 0.294.
Consider TCCCACAAAGTGTTCGAGA, for which the TetR repression strength worked out at 0.159.
For the sequence TCCCGAACAGTTAAGGAGA, the TetR repression strength came to 0.0224.
Consider TCCCACAGAGTGGCCGAGA, for which the TetR repression strength came to 0.263.
The sequence TCCCCGTGAGTCATCGAGA registered a TetR repression strength of 0.311.
The sequence TCCCCACAAGTGAGGGAGA came in with a TetR repression strength of 0.956.
TCCCGGGAAGTGGTAGAGA displayed a TetR repression strength of 0.0854.
Regarding TCCCTTAGAGTAAGGGAGA, the TetR repression strength is 0.197.
For TCCCCTCAAGTGGTAGAGA, the TetR repression strength was determined as 0.207.
As for TCCCCAAGAGTGATTGAGA, the TetR repression strength came out at 0.227.
The value for TCCCGTACAGTGGGGGAGA was 0.145; that for TCCCGTTTAGTGTTGGAGA was 0.191; that for TCCCGAGTAGTCTTCGAGA was 0.165.
Regarding TCCCAAAAAGTTGCGGAGA, the TetR repression strength turned out to be 0.456.
As to TCCCATCAAGTGGTAGAGA, the TetR repression strength turned out to be 0.342.
TCCCTAGCAGTGGCCGAGA gave a TetR repression strength of 0.372.
Regarding TCCCGGTCAGTTGTGGAGA, the TetR repression strength is 0.265.
TCCCCTCTAGTTGTCGAGA yielded a TetR repression strength of 0.21.
For TCCCAGCCAGTTTTGGAGA, the TetR repression strength was 0.298.
TCCCTTAAAGTCTGGGAGA registered a TetR repression strength of 0.271.
Turning to TCCCGGTGAGTCCATGAGA, the TetR repression strength was determined as 0.244.
In the case of TCCCTGACAGTCTAAGAGA, the TetR repression strength was 0.494.
For the sequence TCCCTTTCAGTGATTGAGA, the TetR repression strength was 0.713.
In turn, TCCCCGGGAGTGTACGAGA came in with a TetR repression strength of 0.164.
TCCCCGCTAGTGGGCGAGA registered a TetR repression strength of 0.175.
In turn, TCCCCAACAGTGTTTGAGA returned a TetR repression strength of 0.311.
Sequence TCCCCTATAGTCCGAGAGA had a TetR repression strength of 0.292.
TCCCGTTAAGTGGGCGAGA: the TetR repression strength amounted to 0.144.
Consider TCCCGATGAGTAAGTGAGA, for which the TetR repression strength came to 0.37.
The value for TCCCCTGGAGTACAGGAGA was 0.326; that for TCCCGCTTAGTTGTCGAGA was 0.287.
In turn, TCCCGACGAGTAGGGGAGA displayed a TetR repression strength of 0.1.
As to TCCCGTTGAGTCTGGGAGA, the TetR repression strength was 0.149.
Sequence TCCCCTCGAGTTTTGGAGA showed a TetR repression strength of 0.188.
In turn, TCCCGGGTAGTGCGCGAGA registered a TetR repression strength of 0.311.
Turning to TCCCAATGAGTGTGCGAGA, the TetR repression strength came to 0.115.
Take TCCCTTGTAGTTGAAGAGA: the TetR repression strength is 0.148.
Regarding TCCCCAGTAGTGGGGGAGA, the TetR repression strength stood at 0.14.
The sequence TCCCATACAGTACGGGAGA gave a TetR repression strength of 0.266.
TCCCATTCAGTGTGAGAGA displayed a TetR repression strength of 0.518.
Regarding TCCCCGAGAGTGATAGAGA, the TetR repression strength was determined as 0.3.
For TCCCCAATAGTTTATGAGA, the TetR repression strength worked out at 0.311.
In the case of TCCCAGTTAGTCGGCGAGA, the TetR repression strength was 0.388.
TCCCTAAGAGTACGGGAGA: the TetR repression strength worked out at 0.231.
In turn, TCCCTCGGAGTGATGGAGA returned a TetR repression strength of 0.159.
TCCCGCAAAGTTTGCGAGA gave a TetR repression strength of 0.219.
In turn, TCCCTGTGAGTAATTGAGA gave a TetR repression strength of 0.17.
Under TCCCAAACAGTGGGCGAGA stands 0.41; under TCCCCTTGAGTGGCGGAGA, 0.129.
In the case of TCCCCGGCAGTCCGCGAGA, the TetR repression strength was found to be 0.0912.
TCCCGCACAGTATCGGAGA: the TetR repression strength worked out at 0.269.
Turning to TCCCAATCAGTTTAAGAGA, the TetR repression strength is 0.368.
Sequence TCCCCCACAGTGCTCGAGA registered a TetR repression strength of 0.387.
Under TCCCCTAGAGTTCGTGAGA stands 0.161.
The sequence TCCCACGCAGTCTGGGAGA registered a TetR repression strength of 0.118.
Regarding TCCCTGTTAGTCTTAGAGA, the TetR repression strength was 0.154.
Sequence TCCCTTTGAGTGTGAGAGA returned a TetR repression strength of 0.192.
TCCCTCGTAGTGGCTGAGA yielded a TetR repression strength of 0.378.
Sequence TCCCGCTTAGTGGCGGAGA registered a TetR repression strength of 0.177.
TCCCTGGCAGTGTTTGAGA: the TetR repression strength came to 0.253.
In turn, TCCCGGATAGTAGCGGAGA had a TetR repression strength of 0.329.
The value for TCCCGGTAAGTGTTGGAGA was 0.172; that for TCCCCTGTAGTCGGCGAGA was 0.283; that for TCCCAATGAGTGGTGGAGA was 0.212.
Turning to TCCCTCATAGTCGGAGAGA, the TetR repression strength was determined as 0.257.
Regarding TCCCAGGTAGTGCGTGAGA, the TetR repression strength is 0.294.
For TCCCGGGTAGTGTGGGAGA, the TetR repression strength was determined as 0.214.
